# PMC12136788
# The list shows a part of the results.
# T1: UNK ZnF1-3 (human, UniProt Q9C0B0 31-174)
# T1 sequence: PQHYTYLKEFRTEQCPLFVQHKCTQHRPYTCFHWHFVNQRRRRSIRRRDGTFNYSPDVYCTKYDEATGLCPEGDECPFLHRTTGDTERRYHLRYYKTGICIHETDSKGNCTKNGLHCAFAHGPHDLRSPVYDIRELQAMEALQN
# B1: 130144383_130144503_4556_CDS_ENSMUSG00000030779_ENSMUST00000052135|mouse|control|control (ssRNA)
# RNA: GGGAGUUCUACAGUCCGACGAUCGUCCUUGGCUCUGCCCUUCUCACUGGACGCACUGCCCUUUGAGCUCCUGAGCUCGUGCUGCAUCAGCUCGUGGCUCGCCUCCUUGGGAAGCUUCUGCAGUUUCUCGGGCUGCUCGCUUUCCAACAGAGGAUUGAGCAUCA
# B2: chr12:42180722:42180723:-_ENSMUSG00000036295_ENSMUST00000043884|mus_hu|mus_mus_mus_hu_True|38_48 (ssRNA)
# RNA: GGGAGUUCUACAGUCCGACGAUCCUGUAGGAGAAGAAUCUGUGUGUUAGCUGGCAAUCUGGCUGGGAAAGUUAAAAGACCUAAAUCAUUACAGUCCACUGUCGAUGCUUCCAUAUAAAUGGAUCUGGGUGUAAACCAAGGCCUCAACAGAGGAUUGAGCAUCA
# B3: chr6:67234166:67234167:+_ENSMUSG00000036371_ENSMUST00000042990|mus_mus|FALSE|FALSE (ssRNA)
# RNA: GGGAGUUCUACAGUCCGACGAUCUGAAGAAUGCAUAUUCUCUGAAAAUUAUGAAAACAUCCCUGCUACCAAUACAUUUCUAAAUACAAAACUGACUAACAUAUUUUGUUACUUCUGUGUAGCUAGAGAAGUUCGUUUUCAAAACAACAGAGGAUUGAGCAUCA
# B4: 44721363_44733459_1353_CDS_ENSG00000105953_ENST00000222673|human|control|control (ssRNA)
# RNA: GGGAGUUCUACAGUCCGACGAUCGGAGCGGGCCAUCCGAGGGUCGGUGGUGAAGCCGAUCUGGUUGUUGACGACCACGUGCACGGUGCCAUGAGUUGUGUAGGAUGGCAGGUCGCUGAGGUGGAAGGUCUCGUACACAAUGCCCAACAGAGGAUUGAGCAUCA
# B5: chr8:29961843:29961844:+_ENSG00000104660_ENST00000321250|hu_hu|FALSE|FALSE (ssRNA)
# RNA: GGGAGUUCUACAGUCCGACGAUCGGCAAGUUCCUUACAAGCGUUACUCAUAGCAUCUGUAUCAUCCACUAAUCUUCUUGCUAUGCAGUAUGGAAUAGGUGAAAGGAUGUAAAAAAAUAGAACAAAGAGGGGCCAGUAUUUGUUCAACAGAGGAUUGAGCAUCA
# B6: chr1:44183430:44183431:+_ENSMUSG00000041684_ENSMUST00000114709|mus_hu|FALSE|FALSE (ssRNA)
# RNA: GGGAGUUCUACAGUCCGACGAUCUUUAUAGAUUGAGGUCGCCUGGUUGAGAAAGGCAUAGUCCGAACAGAUGGCAUAAAUUUUUUCCCGUGUAUGAGUCACUGGACAACUCCAUGGAUAAUGACCAUCUCCUUUGGGACCCAACAACAGAGGAUUGAGCAUCA
# B7: chr1:231413285:231413286:+_ENSG00000116906_ENST00000366647|hu_hu|FALSE|FALSE (ssRNA)
# RNA: GGGAGUUCUACAGUCCGACGAUCGUUUGUUGUAAUGAGUCCUUCGAUGAGAGUAAUUACGUGACCGAAUUUUCCAUAACUAUUUGUUGAUUAUUAAAGUUUUGCAGUGGCUGGUUUUCCUAUUGGUGUCUUACAACCAAGCAUCAACAGAGGAUUGAGCAUCA
# B8: chr1:90180492:90180493:+_ENSG00000171488_ENST00000370454|hu_mus|motif|central (ssRNA)
# RNA: GGGAGUUCUACAGUCCGACGAUCUUUCAUCUGCUCCCGGACAUCUGAGGGCAGAGUCUCAAACAGAGCAUCUUCCACAACGGGCCCGGCUCGCUUCAGAGCCCGGCAGUCUCCCAGCUCGGGAGGGAGGACUUCAAAGUGAUUCAACAGAGGAUUGAGCAUCA
# B9: chr12:123346578:123346579:+_ENSG00000130787_ENST00000253083|hu_hu|FALSE|FALSE (ssRNA)
# RNA: GGGAGUUCUACAGUCCGACGAUCAGCUCUAGCUCGGAAUAUUAAAAACACUAUUUUCUGAAGAGGAAUAUUAAAAACACUAUUUUCUGAAGAGUUGAGGCUCAGGCCUACCGGGUCCUGGCUGCACCCCAAAGUUCCUUCUGCCAACAGAGGAUUGAGCAUCA
# B10: chr11:77340882:77340883:-_ENSG00000074201_ENST00000525064|hu_mus|motif|central (ssRNA)
# RNA: GGGAGUUCUACAGUCCGACGAUCAACAUACAAAUGCUCUUGAGGGUAAGCGUUUGGAUCCCUGGACACCGCAUGUAAACGGAUGGUGGGGUAUUCCAGUGAGAAUCCUAAUCCCGAACCAUCUAACCAGGACAGGCGGCUCUCCAACAGAGGAUUGAGCAUCA
# B11: chr2:38870762:38870763:+_ENSMUSG00000026755_ENSMUST00000090993|mus_mus|FALSE|FALSE (ssRNA)
# RNA: GGGAGUUCUACAGUCCGACGAUCCCUGCAAAGAAUUUAGGAAUCAAUAAGACAAUUUCUCCCUCCACCUCAAAAGUAAAAUACAUUCCAGAAGAUGUGUCCUGAAGUAUUUAGUUGGGAGUUCUAGGAAGAUGGUCCAUUGUCCAACAGAGGAUUGAGCAUCA
# B12: chr1:244855233:244855234:+_ENSG00000121644_ENST00000302550|hu_mus|hu_hu_hu_mus_True|48_108 (ssRNA)
# RNA: GGGAGUUCUACAGUCCGACGAUCCAUUAAAUGAUAAGCGUUGCCCUUAUACUCUUUCCCCAGUUCUUCUACAAUUUUCUCUAUAUCAUCUUCUAGGAAGUCCGUACUUCCUAGAACAACAGCUUCUUUAAAUUUAAAUGUUUCCAACAGAGGAUUGAGCAUCA
# B13: chr10:84155644:84155645:+_ENSMUSG00000034453_ENSMUST00000077175|mus_mus|motif|central (ssRNA)
# RNA: GGGAGUUCUACAGUCCGACGAUCGCUGUAGCUCAUCACGGCAACAGUUGCGUUCUGGCCAGCCGGCAACUUCUCAAAAUCGGUCAACUCGAUUGUUUUUGUUUUAACCAUGGGCUUUUGUGGAUAUGCUAGUAGAUACAUAAGCAACAGAGGAUUGAGCAUCA
# B14: 81609093_81609612_1819_CDS_ENSMUSG00000022390_ENSMUST00000109554|mouse|control|control (ssRNA)
# RNA: GGGAGUUCUACAGUCCGACGAUCGCGGCCGAGGAGGACGUCCCUUCUGCACUUGUGCUCGAGGCCCUCACGGUAGGUAUAGUCGCCAGCCCUGGGGCCUGUUUUGGGGUAGCACAACUGGCAGGCCUGCUUGAACUCGUGGGUCAACAGAGGAUUGAGCAUCA
# Biological target: T1, UNK ZnF1-3
# Assay: nsRBNS (natural sequence RNA bind-n-seq); RBNS binding buffer (assumed for nsRBNS): 25 mM Tris pH 7.5, 150 mM KCl, 3 mM MgCl2, 0.01% Triton X-100, 500 ug/ml BSA, 20 U/ml SUPERase-In, 4 C; UNK is unkempt and MSI1 is Musashi-1; names of the RNAs are library labels; protein concentration not given here; high values mean tight binding
row,Binder,binding signal [enrichment R]
1,B1,0.437
2,B2,1.32
3,B3,0.623
4,B4,0.487
5,B5,1.4
6,B6,1.36
7,B7,0.746
8,B8,1.05
9,B9,1.47
10,B10,1.36
11,B11,1.6
12,B12,1.25
13,B13,1
14,B14,0.897
